According to the supplement of paper PMC4967469:
A lower IC50 marks a more sensitive line; fits outside the tested doses are given as limits. AUC sums up the same curve from the lowest dose to the 256-fold higher top dose; the more sensitive the line, the further below 1. An inferred top dose was calculated from the reported fits.

What was measured:
Test in all cases: Viability of human cancer cell lines after 72 h of drug (GDSC screen)
BAY 61-3606 = compound: COc1ccc(-c2cc3nccn3c(Nc3ncccc3C(N)=O)n2)cc1OC [BAY 61-3606]; details: top dose 8 µM; top dose inferred
Experimental: (§1)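 Human cancer cell lines in 384-well plates, medium with 10% serum, drug for 72 h over a 256-fold dose range (nine 2-fold or five 4-fold steps up to the top dose). Adherent lines were fixed and stained with the nucleic acid dye Syto60, suspension lines read with resazurin; signal relative to control wells, capped at 0 and 100%. One two-parameter sigmoid per drug and line, fitted in a mixed model over all curves with the slope shared within a line.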

CCT007093 = compound: O=C1/C(=C/c2cccs2)CC/C1=C\c1cccs1 [CCT007093]; details: top dose 6.6 µM; top dose inferred
Experimental: as §1

KIN001-266 = compound: CCN1CCC(n2cc(CNc3cc(Cl)c4ncc(C#N)c(Nc5ccc(F)c(Cl)c5)c4c3)nn2)CC1 [KIN001-266]; details: top dose 20 µM; top dose inferred
Experimental: as §1

QL-XII-47 = compound: C=CC(=O)N1CCc2ccc(-n3c(=O)ccc4cnc5ccc(-c6cnn(C)c6)cc5c43)cc21 [QL-XII-47]; details: top dose 10.24 µM; top dose inferred
Experimental: as §1

| Cell Line | AUC (BAY 61-3606) | IC50 (BAY 61-3606) [µM] | AUC (CCT007093) | IC50 (CCT007093) [µM] | AUC (KIN001-266) | IC50 (KIN001-266) [µM] | AUC (QL-XII-47) | IC50 (QL-XII-47) [µM] |
| --- | --- | --- | --- | --- | --- | --- | --- | --- |
| UACC-893 (breast, adherent) | 0.977 | > 8 | 0.934 | > 6.6 | 0.863 | > 20 | 0.614 | 1.46 |
| UM-UC-3 (bladder, adherent) | 0.876 | 7.1 | 0.972 | > 6.6 | 0.877 | 17.9 | 0.588 | 1.1 |
| UMC-11 (lung carcinoid, adherent) | 0.895 | 7.92 | 0.988 | > 6.6 | 0.875 | 16.1 | 0.884 | 9.04 |
| VA-ES-BJ (soft tissue, adherent) | 0.877 | > 8 | 0.98 | > 6.6 | 0.871 | > 20 | 0.705 | 2.5 |
| VAL (B-cell lymphoma, suspension) | 0.707 | 1.93 | 0.985 | > 6.6 | 0.726 | 5.52 | 0.662 | 1.81 |
| VCaP (prostate, adherent) | 0.933 | > 8 | 0.987 | > 6.6 | 0.899 | > 20 | 0.349 | 0.239 |
| VM-CUB-1 (bladder, adherent) | 0.954 | > 8 | 0.989 | > 6.6 | 0.865 | 16.7 | 0.936 | > 10.2 |
| VMRC-MELG (melanoma, adherent) | 0.899 | > 8 | 0.989 | > 6.6 | 0.828 | 13.1 | 0.972 | > 10.2 |
| VMRC-RCZ (kidney, adherent) | 0.811 | 5.13 | 0.911 | > 6.6 | 0.893 | > 20 | 0.393 | 0.31 |
| WIL2-NS (lymphoid neoplasm, suspension) | 0.546 | 0.653 | 0.989 | > 6.6 | 0.898 | 16.8 | 0.311 | 0.213 |
| WM35 (melanoma, adherent) | 0.839 | 5.5 | 0.967 | > 6.6 | 0.722 | 5.35 | 0.525 | 0.749 |
| WM278 (melanoma, adherent) | 0.809 | 4.85 | 0.965 | > 6.6 | 0.82 | 13.4 | 0.763 | 4.14 |
| WM793B (melanoma, adherent) | 0.663 | 1.5 | 0.983 | > 6.6 | 0.866 | > 20 | 0.984 | > 10.2 |
| WM1552C (melanoma, adherent) | 0.886 | > 8 | 0.987 | > 6.6 | 0.987 | > 20 | 0.773 | 4 |
| WM-115 (melanoma, adherent) | 0.98 | > 8 | 0.982 | > 6.6 | 0.858 | > 20 | 0.448 | 0.445 |
| WSU-DLCL2 (B-cell lymphoma, suspension) | 0.993 | > 8 | 0.973 | > 6.6 | 0.887 | 15.8 | 0.826 | 4.83 |
| WSU-NHL (lymphoid neoplasm, suspension) | 0.679 | 1.47 | 0.985 | > 6.6 | 0.884 | 17.1 | 0.851 | 6.43 |
| YAPC (pancreas, adherent) | 0.977 | > 8 | 0.974 | > 6.6 | 0.893 | > 20 | 0.905 | > 10.2 |
| YKG-1 (glioma, adherent) | 0.498 | 0.493 | 0.969 | > 6.6 | 0.872 | 19.5 | 0.389 | 0.315 |
| YT (lymphoid neoplasm, suspension) | 0.755 | – | 0.983 | > 6.6 | 0.885 | 16.1 | 0.557 | 0.894 |
| huH-1 (liver, adherent) | 0.983 | > 8 | 0.977 | > 6.6 | 0.983 | > 20 | 0.981 | > 10.2 |
| no-10 (glioma, adherent) | 0.952 | > 8 | 0.973 | > 6.6 | 0.911 | > 20 | 0.638 | 1.68 |
| no-11 (glioma, adherent) | 0.873 | > 8 | 0.983 | > 6.6 | 0.893 | > 20 | 0.528 | 0.779 |
